This is one part of the list.
What follows are compounds tested on HepG2 (assay: cytotoxicity call (relative viability < 0.9)). Conditions: 10 µM.
`C[C@@H]1CCCCO[C@H](CN(C)Cc2ccccc2)[C@@H](C)CN([C@H](C)CO)C(=O)c2cc(NC(=O)CCC(F)(F)F)ccc2O1` was tested, and the cytotoxicity call was “inactive”. With `COCC#Cc1cnc2c(c1)C(=O)N([C@H](C)CO)C[C@@H](C)[C@@H](CN(C)C(=O)Nc1ccccc1OC)O2` the cytotoxicity call was “inactive”. For `NCCCC(O)(P(=O)(O)O)P(=O)(O)O`, the cytotoxicity call was “inactive”. In the case of `Cc1noc(C)c1S(=O)(=O)N(C)C[C@@H]1OCCCC[C@H](C)Oc2ccc(NC(=O)Nc3ccccc3)cc2C(=O)N([C@H](C)CO)C[C@H]1C`, the cytotoxicity call is reported as “active”. For `C[C@H](NC(=O)C[C@@H]1C[C@@H]2c3cc(NC(=O)Nc4ccc(C(F)(F)F)cc4)ccc3O[C@@H]2[C@@H](CO)O1)c1ccccc1`, the cytotoxicity call was “active”. For `COCC(=O)N(C)C[C@@H]1Oc2cc(C#CC(C)(C)O)ccc2S(=O)(=O)N([C@H](C)CO)C[C@@H]1C`, the cytotoxicity call was “inactive”. In the case of `O=C(C[C@@H]1CC[C@@H]2NC[C@H](O)COC[C@H]2O1)NCCN1CCCC1`, the cytotoxicity call is reported as “inactive”. With `C[C@H](CO)N1C[C@H](C)[C@H](CN(C)C(=O)Nc2ccc3c(c2)OCO3)OCc2cnnn2CCCC1=O` the cytotoxicity call was “inactive”. With `Cc1cc(C(=O)Nc2cccc3c2O[C@@H](CN(C)C(=O)NC2CCCCC2)[C@H](C)CN([C@H](C)CO)C3=O)n(C)n1` the cytotoxicity call was “inactive”. In the case of `C[C@@H]1CN([C@@H](C)CO)C(=O)c2cc(C#Cc3ccccc3F)cnc2O[C@@H]1CN(C)S(=O)(=O)c1ccccc1F`, the cytotoxicity call is reported as “inactive”. In the case of `Cc1cc(C)c2ccc(Cl)nc2n1`, the cytotoxicity call is reported as “inactive”. With `C[C@@H]1CN([C@@H](C)CO)C(=O)c2cc(NC(=O)Nc3ccc(C(F)(F)F)cc3)ccc2O[C@H]1CN(C)C(=O)Nc1ccc2c(c1)OCO2` the cytotoxicity call was “inactive”. In the case of `Nc1c(C(=O)O)cnc2nc(N3CCOCC3)nn12`, the cytotoxicity call is reported as “inactive”. In the case of `O=S(=O)(NCC[C@H]1CC[C@H](NS(=O)(=O)c2ccccc2Cl)[C@H](CO)O1)c1ccc(Cl)cc1`, the cytotoxicity call is reported as “inactive”. `CN1CCN(C(=O)C[C@H]2CC[C@H]3[C@@H](COC[C@H](O)CN3S(=O)(=O)c3cccc(Cl)c3)O2)CC1` was tested, and the cytotoxicity call was “inactive”. In the case of `C[C@H](CO)N1C[C@H](C)[C@H](CN(C)Cc2ccc(C(=O)O)cc2)OCCCC[C@H](C)Oc2ccc(NC(=O)C3CCCCC3)cc2C1=O`, the cytotoxicity call is reported as “inactive”. For `O=C(CN1CCOCC1)N[C@@H]1CC[C@@H](CCn2cc(C3CC3)nn2)O[C@H]1CO`, the cytotoxicity call was “inactive”. For `C[C@@H]1CN([C@H](C)CO)C(=O)c2cc(-c3cccc(C(=O)N(C)C)c3)cnc2O[C@@H]1CN(C)S(=O)(=O)c1ccccc1`, the cytotoxicity call was “inactive”. In the case of `C[C@@H]1CN([C@H](C)CO)C(=O)c2cc(NC(=O)Nc3cccc4ccccc34)ccc2O[C@@H]1CN(C)Cc1ccc(C(F)(F)F)cc1`, the cytotoxicity call is reported as “inactive”. In the case of `CC1(C)SC2C(NC(=O)COc3ccccc3)C(=O)N2C1C(=O)[O-].[K+]` (stereo unspecified), the cytotoxicity call is reported as “inactive”. In the case of `Cc1cc(C(=O)Nc2cccc3c2O[C@@H](CN(C)C(=O)Nc2ccc4c(c2)OCO4)[C@H](C)CN([C@H](C)CO)C3=O)n(C)n1`, the cytotoxicity call is reported as “inactive”. With `C[C@@H]1CN([C@@H](C)CO)C(=O)c2cc(NC(=O)Cc3ccccc3)ccc2O[C@@H](C)CCCCO[C@@H]1CN(C)C(=O)Nc1cccc2ccccc12` the cytotoxicity call was “active”. In the case of `C=CCC[C@H](Cc1ccc(F)cc1)C(=O)OC[C@@H](NC(=O)[C@H](CC=C)CC(=O)N(CCO)Cc1ccccc1)c1ccccc1`, the cytotoxicity call is reported as “inactive”. `C[C@@H]1CN([C@H](C)CO)C(=O)c2cc(NC(=O)Cc3cn(C)c4ccccc34)ccc2O[C@H]1CN(C)S(=O)(=O)c1cn(C)cn1` was tested, and the cytotoxicity call was “inactive”. For `C[C@H]1CN([C@@H](C)CO)C(=O)c2cc(NC(=O)CCC(F)(F)F)ccc2O[C@H]1CN(C)C(=O)Nc1cccc2ccccc12`, the cytotoxicity call was “inactive”. `C[C@H](CO)N1C[C@H](C)[C@@H](CN(C)Cc2ccc(Oc3ccccc3)cc2)Oc2c(NC(=O)c3nc4ccccc4s3)cccc2C1=O` was tested, and the cytotoxicity call was “active”. For `COc1ccc2c3c(n(c2c1)C)[C@@H](CO)N(CC1CCOCC1)C[C@]13CCN(CC1)C(=O)Cc1cccnc1`, the cytotoxicity call was “inactive”. In the case of `C[C@@H]1CCCCO[C@@H](CN(C)S(=O)(=O)c2ccc(F)cc2)[C@H](C)CN([C@@H](C)CO)C(=O)c2cc(NC(=O)Nc3ccc4c(c3)OCO4)ccc2O1`, the cytotoxicity call is reported as “inactive”. In the case of `C[C@H](CO)N1C[C@H](C)[C@H](CN(C)C(=O)Nc2ccc3c(c2)OCO3)Oc2ccc(NC(=O)Cn3cnnn3)cc2C1=O`, the cytotoxicity call is reported as “inactive”.

These compounds were tested on S. aureus RN4220 (assay: growth inhibition call (relative growth <= 0.2)). Conditions: 50 µM.
`O=c1[nH]nc(N2CCSCC2)[nH]1` was tested, and the growth inhibition call was “inactive”. In the case of `C[C@H]1CN([C@@H](C)CO)C(=O)c2c(c3ccccc3n2C)-c2ccccc2CO[C@@H]1CN(C)S(=O)(=O)c1cn(C)cn1`, the growth inhibition call is reported as “inactive”. With `C[C@@H]1CCCCO[C@@H](CN(C)C(=O)NC2CCCCC2)[C@H](C)CN([C@@H](C)CO)C(=O)c2cc(NS(=O)(=O)c3ccc(Cl)cc3)ccc2O1` the growth inhibition call was “inactive”. With `CC(C)NC(=O)Nc1ccc2c(c1)CC(=O)N([C@@H](C)CO)C[C@H](C)[C@H](CN(C)C(=O)NC1CCCCC1)O2` the growth inhibition call was “inactive”. With `Cc1noc(C)c1NC(=O)N(C)C[C@@H]1Oc2ccc(NS(=O)(=O)c3cccs3)cc2CC(=O)N([C@@H](C)CO)C[C@H]1C` the growth inhibition call was “inactive”. With `C[C@@H]1CCCCO[C@H](CN(C)S(=O)(=O)c2ccc(Cl)cc2)[C@H](C)CN([C@@H](C)CO)C(=O)c2cc(NC(=O)Nc3ccc(C(F)(F)F)cc3)ccc2O1` the growth inhibition call was “inactive”. For `C[C@H](CO)N1C[C@H](C)[C@@H](CN(C)S(=O)(=O)c2cn(C)cn2)OCCCC[C@H](C)Oc2ccc(N(C)C)cc2C1=O`, the growth inhibition call was “inactive”. For `C[C@@H]1CN([C@@H](C)CO)C(=O)c2cccc(NC(=O)Nc3ccccc3)c2O[C@@H]1CN(C)S(C)(=O)=O`, the growth inhibition call was “inactive”. In the case of `O=c1nc[nH]c2nn(-c3ccccc3)nc12`, the growth inhibition call is reported as “inactive”. For `C[C@@H]1CN([C@H](C)CO)C(=O)c2cc(NS(C)(=O)=O)ccc2O[C@H]1CN(C)S(=O)(=O)c1ccccc1`, the growth inhibition call was “inactive”. For `COc1ccc(S(=O)(=O)Nc2ccc3c(c2)C(=O)N([C@@H](C)CO)C[C@H](C)[C@H](CN(C)S(C)(=O)=O)O3)cc1`, the growth inhibition call was “inactive”. With `C[C@@H]1CCCCO[C@H](CN(C)Cc2ccccc2)[C@@H](C)CN([C@H](C)CO)C(=O)c2cc(NC(=O)CCC(F)(F)F)ccc2O1` the growth inhibition call was “inactive”. For `COCC#Cc1cnc2c(c1)C(=O)N([C@H](C)CO)C[C@@H](C)[C@@H](CN(C)C(=O)Nc1ccccc1OC)O2`, the growth inhibition call was “inactive”. `NCCCC(O)(P(=O)(O)O)P(=O)(O)O` was tested, and the growth inhibition call was “inactive”. For `Cc1noc(C)c1S(=O)(=O)N(C)C[C@@H]1OCCCC[C@H](C)Oc2ccc(NC(=O)Nc3ccccc3)cc2C(=O)N([C@H](C)CO)C[C@H]1C`, the growth inhibition call was “inactive”. `C[C@H](NC(=O)C[C@@H]1C[C@@H]2c3cc(NC(=O)Nc4ccc(C(F)(F)F)cc4)ccc3O[C@@H]2[C@@H](CO)O1)c1ccccc1` was tested, and the growth inhibition call was “inactive”. In the case of `COCC(=O)N(C)C[C@@H]1Oc2cc(C#CC(C)(C)O)ccc2S(=O)(=O)N([C@H](C)CO)C[C@@H]1C`, the growth inhibition call is reported as “inactive”. With `O=C(C[C@@H]1CC[C@@H]2NC[C@H](O)COC[C@H]2O1)NCCN1CCCC1` the growth inhibition call was “inactive”. `C[C@H](CO)N1C[C@H](C)[C@H](CN(C)C(=O)Nc2ccc3c(c2)OCO3)OCc2cnnn2CCCC1=O` was tested, and the growth inhibition call was “inactive”. With `Cc1cc(C(=O)Nc2cccc3c2O[C@@H](CN(C)C(=O)NC2CCCCC2)[C@H](C)CN([C@H](C)CO)C3=O)n(C)n1` the growth inhibition call was “inactive”. For `C[C@@H]1CN([C@@H](C)CO)C(=O)c2cc(C#Cc3ccccc3F)cnc2O[C@@H]1CN(C)S(=O)(=O)c1ccccc1F`, the growth inhibition call was “inactive”. With `Cc1cc(C)c2ccc(Cl)nc2n1` the growth inhibition call was “inactive”. For `C[C@@H]1CN([C@@H](C)CO)C(=O)c2cc(NC(=O)Nc3ccc(C(F)(F)F)cc3)ccc2O[C@H]1CN(C)C(=O)Nc1ccc2c(c1)OCO2`, the growth inhibition call was “inactive”. In the case of `Nc1c(C(=O)O)cnc2nc(N3CCOCC3)nn12`, the growth inhibition call is reported as “inactive”. With `O=S(=O)(NCC[C@H]1CC[C@H](NS(=O)(=O)c2ccccc2Cl)[C@H](CO)O1)c1ccc(Cl)cc1` the growth inhibition call was “inactive”. In the case of `CN1CCN(C(=O)C[C@H]2CC[C@H]3[C@@H](COC[C@H](O)CN3S(=O)(=O)c3cccc(Cl)c3)O2)CC1`, the growth inhibition call is reported as “inactive”. For `C[C@H](CO)N1C[C@H](C)[C@H](CN(C)Cc2ccc(C(=O)O)cc2)OCCCC[C@H](C)Oc2ccc(NC(=O)C3CCCCC3)cc2C1=O`, the growth inhibition call was “inactive”. For `O=C(CN1CCOCC1)N[C@@H]1CC[C@@H](CCn2cc(C3CC3)nn2)O[C@H]1CO`, the growth inhibition call was “inactive”. `C[C@@H]1CN([C@H](C)CO)C(=O)c2cc(-c3cccc(C(=O)N(C)C)c3)cnc2O[C@@H]1CN(C)S(=O)(=O)c1ccccc1` was tested, and the growth inhibition call was “inactive”. `C[C@@H]1CN([C@H](C)CO)C(=O)c2cc(NC(=O)Nc3cccc4ccccc34)ccc2O[C@@H]1CN(C)Cc1ccc(C(F)(F)F)cc1` was tested, and the growth inhibition call was “inactive”. For `CC1(C)SC2C(NC(=O)COc3ccccc3)C(=O)N2C1C(=O)[O-].[K+]` (stereo unspecified), the growth inhibition call was “active”. In the case of `Cc1cc(C(=O)Nc2cccc3c2O[C@@H](CN(C)C(=O)Nc2ccc4c(c2)OCO4)[C@H](C)CN([C@H](C)CO)C3=O)n(C)n1`, the growth inhibition call is reported as “inactive”. For `C[C@@H]1CN([C@@H](C)CO)C(=O)c2cc(NC(=O)Cc3ccccc3)ccc2O[C@@H](C)CCCCO[C@@H]1CN(C)C(=O)Nc1cccc2ccccc12`, the growth inhibition call was “inactive”. For `C=CCC[C@H](Cc1ccc(F)cc1)C(=O)OC[C@@H](NC(=O)[C@H](CC=C)CC(=O)N(CCO)Cc1ccccc1)c1ccccc1`, the growth inhibition call was “inactive”. In the case of `C[C@@H]1CN([C@H](C)CO)C(=O)c2cc(NC(=O)Cc3cn(C)c4ccccc34)ccc2O[C@H]1CN(C)S(=O)(=O)c1cn(C)cn1`, the growth inhibition call is reported as “inactive”. With `C[C@H]1CN([C@@H](C)CO)C(=O)c2cc(NC(=O)CCC(F)(F)F)ccc2O[C@H]1CN(C)C(=O)Nc1cccc2ccccc12` the growth inhibition call was “inactive”. `C[C@H](CO)N1C[C@H](C)[C@@H](CN(C)Cc2ccc(Oc3ccccc3)cc2)Oc2c(NC(=O)c3nc4ccccc4s3)cccc2C1=O` was tested, and the growth inhibition call was “inactive”.

— the antibiotic and cytotoxicity screens of Wong et al. (2023)
